Test results published in PMC4780765, “Role of Interaction and Nucleoside Diphosphate Kinase B in Regulation of the Cystic Fibrosis Transmembrane Conductance Regulator Function by cAMP-Dependent Protein Kinase A” (PLoS ONE, 2016).

Target: T1, nucleoside diphosphate kinase B (human (endogenous in 16HBE14o-), UniProt P22392 1-152)
T1 construct: nucleoside diphosphate kinase B (NDPK-B, NM23-H2), endogenous in the human bronchial epithelial cell line 16HBE14o-; also called NDPK-B; NDPK B; source: endogenous, 16HBE14o- cells (membrane and cytosol fractions, lysates)
T1 sequence (P22392 whole entry): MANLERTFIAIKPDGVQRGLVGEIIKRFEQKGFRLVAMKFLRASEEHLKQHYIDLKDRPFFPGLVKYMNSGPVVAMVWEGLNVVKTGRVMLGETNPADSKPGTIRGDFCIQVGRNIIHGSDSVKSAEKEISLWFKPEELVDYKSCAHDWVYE
Test: co-IP; CFTR or NDPK-B immunoprecipitates from 16HBE14o- membranes; cells untreated, treated with FSK (10 μM)/IBMX (100 μM) for 30 min, or with PKI (100 nM) or H-89 (1 μM) for 5 min before FSK/IBMX
Settings: partners not purified

B1: cystic fibrosis transmembrane conductance regulator (natural protein)
chain: not shown
notes: CFTR, endogenous in the wild type human bronchial epithelial cell line 16HBE14o-; band at 175 kDa; also called CFTR; ABCC7; source: endogenous, 16HBE14o- cells (membrane fraction, lysates, immunoprecipitates)
fold increase of co-immunoprecipitation with FSK/IBMX over untreated cells: 2 fold
